Test results reported in article PMC4336329 (PLoS ONE, 2015).
The whole screen tested about 310,000 compounds, of which about 2,200 (0.71%) showed an effect of 50% or more. The effect is printed as a negative number. This is one part of the list.

Target: human ether-à-go-go-related gene (hERG) potassium channel (human, UniProt Q12809)
Test: primary screen, population patch clamp on CHO cells stably expressing hERG

Sequence of human ether-à-go-go-related gene (hERG) potassium channel (Q12809 whole entry, looked up): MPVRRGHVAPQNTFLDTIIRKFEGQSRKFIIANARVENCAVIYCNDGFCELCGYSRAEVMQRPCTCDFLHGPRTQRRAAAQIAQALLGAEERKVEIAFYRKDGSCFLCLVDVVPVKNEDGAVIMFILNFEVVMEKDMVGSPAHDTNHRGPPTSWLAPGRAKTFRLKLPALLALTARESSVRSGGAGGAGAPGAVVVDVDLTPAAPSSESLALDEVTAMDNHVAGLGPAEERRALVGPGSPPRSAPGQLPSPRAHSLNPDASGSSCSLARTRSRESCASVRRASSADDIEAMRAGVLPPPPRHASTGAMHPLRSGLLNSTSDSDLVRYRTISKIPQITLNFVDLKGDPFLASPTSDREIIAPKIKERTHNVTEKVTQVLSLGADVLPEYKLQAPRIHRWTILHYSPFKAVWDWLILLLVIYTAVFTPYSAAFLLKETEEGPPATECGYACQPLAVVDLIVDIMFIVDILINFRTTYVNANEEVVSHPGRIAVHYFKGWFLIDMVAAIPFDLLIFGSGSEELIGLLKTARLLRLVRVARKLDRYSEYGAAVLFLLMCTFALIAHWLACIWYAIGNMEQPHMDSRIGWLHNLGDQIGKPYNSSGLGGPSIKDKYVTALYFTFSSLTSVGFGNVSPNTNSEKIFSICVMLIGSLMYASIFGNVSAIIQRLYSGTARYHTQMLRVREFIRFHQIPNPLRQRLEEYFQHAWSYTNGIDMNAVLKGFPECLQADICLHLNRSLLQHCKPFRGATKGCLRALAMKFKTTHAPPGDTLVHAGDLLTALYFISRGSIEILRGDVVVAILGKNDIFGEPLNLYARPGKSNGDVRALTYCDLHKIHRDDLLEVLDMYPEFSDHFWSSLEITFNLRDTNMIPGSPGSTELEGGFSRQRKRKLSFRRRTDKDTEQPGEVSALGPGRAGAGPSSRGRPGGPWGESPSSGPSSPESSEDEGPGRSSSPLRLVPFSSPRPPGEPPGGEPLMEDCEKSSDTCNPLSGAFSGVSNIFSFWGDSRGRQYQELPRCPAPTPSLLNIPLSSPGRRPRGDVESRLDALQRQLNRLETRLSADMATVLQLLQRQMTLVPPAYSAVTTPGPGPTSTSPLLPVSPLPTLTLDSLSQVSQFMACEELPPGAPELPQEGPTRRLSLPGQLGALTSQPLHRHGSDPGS

Row | SMILES | hERG current change (%, negative = inhibition) at 1uM [%]
1 | C=C1CC2C(CCC3(C)C2CCC3(O)C(C)=O)C2(C)CCC(=O)C=C12 (centres unmarked) | 18.4
2 | CN(CC(O)COc1ccc(S(=O)(=O)N2CCOCC2)cc1)C1CCCCC1 (centres unmarked) | 0.581
3 | O=C(CC(c1ccccc1)c1ccccc1O)NCCN1CCOCC1 (centres unmarked) | 12.8
4 | Cc1cccc2c(-c3ccccc3)cc(=O)[nH]c12 | 10.7
5 | CCOC(=O)c1ccc(NC(=O)CN2C(=O)C3C4C=CC(C4)C3C2=O)cc1 (centres unmarked) | 10.9
6 | O=C(O)CCS(=O)(=O)c1ccc(-c2ccccc2)cc1 | 13.5
7 | O=C1NC(=O)N(Cc2ccco2)C(=O)/C1=C\c1ccc(-c2ccc(F)cc2)o1 | 7.38
8 | O=C1C(=O)N(CCCO)C(c2ccccc2)/C1=C(\O)c1ccc(Br)cc1 (centres unmarked) | 14.6
9 | N/C(=N\OC(=O)CCCc1ccccc1)c1ccc(Br)cc1 | 13.4
10 | O=C(CCCC(=O)OCC(=O)c1ccc(Cl)cc1Cl)Nc1cc(C(F)(F)F)ccc1Cl | 6.47
11 | C=CCOC(=O)C1=C(C)OC(N)=C(C#N)C1c1ccc(OC)c(CSc2ccccn2)c1 (centres unmarked) | 5.31
12 | O=C(CSc1nnc(C2CCCCC2)n1Cc1ccccc1)NCc1ccco1 | 1.83
13 | CC(=O)c1ccc(NC(=O)c2ccn(C(=O)OCC(C)C)n2)cc1 | -5.67
14 | O=C(Cc1csc(Nc2nc(=S)[nH]c3ccccc23)n1)NCCCN1CCN(c2cccc(Cl)c2)CC1 | 9.77
15 | O=C(COc1ccc(Cl)cc1Cl)NC(=O)N1CCOCC1 | 2.09
16 | COc1ccc(NC(=O)C2CCCN(S(=O)(=O)c3ccccc3)C2)c(OC)c1 (centres unmarked) | 12.7
17 | COc1ccc(/C=C/C(=O)Nc2cccc(S(=O)(=O)N3CCCC3)c2)cc1OC | 14.6
18 | Cc1ccc(N2CC(C(=O)Nc3ccc(S(=O)(=O)N4CCCC4)cc3)CC2=O)cc1C (centres unmarked) | 11.2
19 | CCN1C(=O)/C(=C2\SC(=S)N(CCCOC)C2=O)c2ccccc21 | 3.86
20 | COC(=O)c1cn(CC(=O)Nc2ccc(F)cc2)c2ccccc12 | 8.52
21 | Cc1nc(SC2CC(=O)N(c3ccc([N+](=O)[O-])cc3)C2=O)nc2c1CCCC2 (centres unmarked) | 9.26
22 | CC(N=C1NS(=O)(=O)c2ccccc21)C(=O)OCC(=O)N(C)C1CCS(=O)(=O)C1 (centres unmarked) | -1.85

Row | SMILES | hERG current change (%, negative = inhibition) at 1uM [%]
23 | CCOC(=O)c1c(NC(=O)C(C)S(=O)(=O)c2cn(CC)c3ccccc23)sc2c1CCCC2 (centres unmarked) | 11.6
24 | Cc1ccc2nc(C)c(C(=O)N/N=C/c3ccc(C(=O)O)cc3)cc2c1 | 13.2
25 | O=C(NNC(=O)c1ccc2c(c1)OCO2)NC1CCCCC1 | 12.1
26 | CCOc1cc(NC(=O)c2ccco2)c(OCC)cc1NC(=O)CCc1ccccc1OC | 3.94
27 | COc1ccc(C2=NOC3(CC(=O)N(c4ccc5ccccc5c4)C3=O)C2)c(OC)c1 (centres unmarked) | 22.1
28 | CCOCCCNC(=O)c1cn(CC)c2ccc(S(=O)(=O)N3CCC(C)CC3)cc2c1=O | 7.25
29 | O=C(O)c1ccc(/C=N/N2CCN(Cc3cccc4ccccc34)CC2)cc1 | 8.98
30 | COc1ccc(-c2oc3ncn(CCN4CCOCC4)c(=N)c3c2-c2ccc(OC)cc2)cc1 | -7.75
31 | Cc1cc(C)c(NC(=O)CSc2nnc(-c3ccccn3)n2N)c(Cl)c1 | 8.52
32 | Cc1ccc(NC(=O)CN(C)C(=O)c2cc3c(s2)CCCCC3)cc1 | 7.6
33 | C=CCn1c(SCC(=O)Nc2ncc(Cc3ccc(Br)cc3)s2)nnc1-c1ccncc1 | 13
34 | C#CCNC(=O)C1CCN(c2ccc(S(=O)(=O)N3CCOCC3)cc2Cl)CC1 | 6.8
35 | O=C(NC(=S)Nc1ccccc1C(=O)O)c1cncc(Br)c1 | 18.7
36 | Cc1cc(C)cc(N(CC(=O)NCCSc2ccccn2)S(=O)(=O)c2ccccc2)c1 | -26.8
37 | O=C(NCc1c(Cl)cccc1Cl)c1ccc2nnsc2c1 | 11.4
38 | O=C1CCCCC1C(Nc1ccc(Cl)cc1)c1ccccc1 (centres unmarked) | 0.276
39 | O=C(CSCc1ccc(Cl)cc1)Nc1ccc2c(c1)OCCO2 | -0.795
40 | Cc1c(C(=O)N(C)CCCCN2CCOCC2)oc2c(F)cccc12 | 13.7
41 | CC(=O)Nc1cccc(NC(=O)Cc2ccc3ccccc3c2)c1 | 13
42 | O=C(Nc1ncc(S(=O)(=O)c2ccc([N+](=O)[O-])cc2)s1)c1cccnc1 | 8.48
43 | O=C(O)CSCc1nc2ccccc2[nH]1 | 13.9
44 | COC(=O)c1ccccc1S(=O)(=O)N1CCC(C(=O)OC(C)C(=O)Nc2ccccc2OC)CC1 (centres unmarked) | -8.9

Row | SMILES | hERG current change (%, negative = inhibition) at 1uM [%]
45 | CCN1CCN(CCc2nc3cc(NC(=O)COc4ccccc4)ccc3n2C)CC1 | 0.262
46 | CCN(c1ccc(OC)cc1)S(=O)(=O)c1nnc(NC(=O)C2CCCCC2)s1 | 10.7
47 | COc1ccc2c(c1)c(=O)c(C(=O)c1ccccc1)cn2Cc1ccccc1 | -21.1
48 | NS(=O)(=O)c1ccc(CCNC(=S)Nc2ccc(F)cc2)cc1 | 10.5
49 | CN(C)CCn1c(NCc2ccc3c(c2)OCO3)nc2ccccc21.Cl | -2.76
50 | CCNCCNC(=O)c1c(O)c2c([nH]c1=O)CCCC2 | 6.63
51 | COc1cccc(NS(=O)(=O)c2cc3c(cc2C)N(C(C)=O)CCO3)c1 | 8.57
52 | Clc1cc2c(c(CSc3nc4ccccc4n4cccc34)c1)OCOC2 | 13.1
53 | COc1nc(-c2ccc(Cl)cc2)ccc1-c1noc(-c2ccco2)n1 | 6.89
54 | CC(C)S(=O)(=O)c1cnc(-c2cccnc2)nc1N | 14.7
55 | Cc1cc2cc(CCNS(=O)(=O)c3ccc(F)cc3)c(=O)[nH]c2cc1C | 5.7
56 | Cc1ccccc1NC(=O)Cc1nc(COC(=O)c2ccc(O)cc2O)cs1 | -3.47
57 | O=C(NC(C(Cl)Cl)N1CCOCC1)c1ccccc1 (centres unmarked) | 9.9
58 | CN(Cc1ccccc1)C(=O)COC(=O)c1cc(NS(=O)(=O)c2cccs2)ccc1O | 8.4
59 | Cc1nn(C)c(C)c1NC(=O)CSc1nnc(C)n1-c1ccccc1 | -0.866
60 | COc1cccc(NC(=O)C(C)OC(=O)c2n[nH]c3ccccc23)c1 (centres unmarked) | 3.85
61 | CN(C)CCN(C(=O)c1ccc(S(=O)(=O)N2CCc3ccccc32)cc1)c1nc2ccc(F)cc2s1.Cl | -6.93
62 | O=C(CSc1nnnn1Cc1ccccc1)NC1CCCCC1 | 6.27
63 | COc1cccc(N2CCN(S(=O)(=O)c3ccc4c(c3)oc(=O)n4C)CC2)c1 | 22.7
64 | COc1cc(/C=N/NC(=O)c2ccoc2C)cc(OC)c1OC | 10.5
65 | Cc1oc(C)c(C(N)=O)c1C(N)=O | -0.345
66 | O=C(c1ccccc1)N1CCN(c2ccc(NCc3ccc4c(c3)OCO4)cc2)CC1 | 7.27

Row | SMILES | hERG current change (%, negative = inhibition) at 1uM [%]
67 | Cc1ccc(-c2nc(-c3nccc4ccccc34)oc2-c2ccccc2)cc1 | 12.2
68 | Cc1ccc(SCCC(=O)N/N=C/c2ccccc2O)cc1 | 11.6
69 | CC(C)CN(C(=O)c1ccc(-n2cncn2)c([N+](=O)[O-])c1)C1CCS(=O)(=O)C1 (centres unmarked) | 1.22
70 | CC(C)c1nc2sc3c(c2c(=O)[nH]1)CC(C)(C)OC3 | 11.4
71 | CC(C)NC(=O)Cn1c(=O)c2c(ncn2Cc2ccccc2)n(Cc2ccccc2)c1=O | 2.78
72 | O=C(c1cnn(-c2ccccc2)c1)c1cc(Br)ccc1O | 10.2
73 | O=C(CSc1nnc(COc2ccc(Cl)cc2)o1)NC1CC2CCC1C2 (centres unmarked) | 10.9
74 | CCN(c1ccccc1)S(=O)(=O)c1ccc(Cl)c(NC(=O)CSc2ncn[nH]2)c1 | 8.02
75 | CCCC(=O)Nc1ccc(C(=O)NCc2ccccc2Cl)cc1 | 16.6
76 | Oc1ccccc1/C=N/Nc1cccc2cccnc12 | -8.07
77 | Br.CCCC1CC(=O)OC1(C)C(=O)CSc1n[nH]c(-c2ccccc2)n1 (centres unmarked) | 4.86
78 | Cl.Oc1ccc(C(c2nnnn2C2CCCCC2)N2CCOCC2)cc1 (centres unmarked) | 12.6
79 | CC(=O)NCCC(=O)Nc1ncc(S(=O)(=O)c2ccc([N+](=O)[O-])cc2)s1 | 17.3
80 | c1ccc(-c2nnc(CN3CCC4(CC3)OCCO4)o2)cc1 | 8.84
81 | Cc1nc2cc(N3CCCCC3)c(NC(=O)c3cccnc3)cc2c(=O)n1Cc1ccccc1 | 5.96
82 | CC(=O)Oc1cc(C)cc2oc(=O)cc(-c3ccccc3)c12 | 11.4
83 | Cc1ccc(C2C(C#N)=C(N)Oc3c2sc2ccccc32)o1 (centres unmarked) | 7.93
84 | COc1ccc(N(CC(=O)Nc2cc(Cl)ccc2C)S(=O)(=O)c2c(C)noc2C)cc1 | 22.5
85 | CC1CCC(N(C)C2CCN(C)CC2)CC1 (centres unmarked) | 10.1
86 | Cc1nn(-c2ccccc2)c(C)c1-c1nnc(C(F)(F)F)o1 | 11.5
